The values below come from article PMC3538594 (PLoS ONE, 2013).

One test deals with recombinant complex II (Thermus thermophilus, UniProt Q5SIC0). Description: EPR signal of the [2Fe-2S] cluster (axial/rhombic transition). Also noted: species or system T. thermophilus. To be noted: in words. As to the method:
EPR spectra were recorded on a Bruker ElexSys X-band spectrometer fitted with an Oxford Instrument He-cryostat and temperature control system. Buffers used were either 50 mM MOPS at pH 7 or a mixture of 100 mM MOPS and 100 mM piperazine for the pH experiments. […] Additions of reducing agents were performed at room temperature followed by vortexing and freezing of the sample in liquid nitrogen within 5 min after addition.
Figure 5 Influence of redox mediators, buffer and inhibitors on EPR spectra of the recombinant complex II. […] The spectrum labeled ‘asc’ was obtained on a sample reduced by 5 mM ascorbate, ‘malate’ by addition of 20 mM malate, ‘dith’ by addition of 1 mM dithionite. Vertical lines indicate the position of the gx-signal. Spectra were recorded at a temperature of 50 K, microwave power of 64 mW and a modulation amplitude of 1 mT.
Protein concentration was 10 µM. Spectra were recorded at a temperature of 50 K, microwave power of 64 mW and a modulation amplitude of 1 mT.

In the next test the target is wt-rcII (Thermus thermophilus, UniProt Q5SIC0). Nature of the test: succinate dehydrogenase activity, DCPIP/1,4-NQ set up. To be noted: 30°C; read-out: nKi (non-competitive inhibition). It counts as biochemical, T. thermophilus.

`Oc1ccc(O)c2ccccc12` [1,4-NQH2]: the “influence on the rhombicity of the [2Fe-2S] EPR signal” value on recombinant complex II is reported as “had the same effect as 1,4-NQ”.

`CCCCCCCCCc1cc(O)c2ccccc2[n+]1[O-]` [NQNO]: on wt-rcII, the Ki came out at 88 µM.
